Some of the results follow.
T1: UNK ZnF1-3 (human, UniProt Q9C0B0 31-174)
T1 sequence: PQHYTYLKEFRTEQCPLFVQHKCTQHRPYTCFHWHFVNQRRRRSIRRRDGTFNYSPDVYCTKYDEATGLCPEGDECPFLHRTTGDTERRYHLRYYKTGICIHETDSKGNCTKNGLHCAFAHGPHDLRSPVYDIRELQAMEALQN

B1: 19970420_19970540_2860_CDS_ENSG00000166833_ENST00000396085|human|control|control (ssRNA)
RNA: GGGAGUUCUACAGUCCGACGAUCCAGGUCCAUCUCAUCUCCUGCCUUGUCUGAGACGUCCACAUGGCAGACACUACUGCCCCGGGAGGCCAGCUGCCUUCUCAGAGGGGCGGAGUACACAUAGCGACCUGACUCAGUGUUGAUCAACAGAGGAUUGAGCAUCA
B2: 58046993_58047113_931_CDS_ENSMUSG00000051243_ENSMUST00000114144|mouse|control|control (ssRNA)
RNA: GGGAGUUCUACAGUCCGACGAUCUUCGGCGACGCAAUGUAACAUGAAAGCCAAGCCUGCGCGCAGAGGGGUGCCAGGUGCCUCAGGCGGCGGCUCUGCGCUCAGACGCACGCUGGGGGGUGCGCAGGGCAGGGCGGGCAGGCGCAACAGAGGAUUGAGCAUCA
B3: 74425765_74434846_86_CDS_ENSG00000065911_ENST00000470592|human|control|control (ssRNA)
RNA: GGGAGUUCUACAGUCCGACGAUCGUCUCACUGUUGAUUCCGAACUGCCGCGAGGUGGAAAGGGCGAAGGCGAAGGGAGCAGCUGUGCGCGGGCUGCAGCAGCCGGGCAGCCAAAGCAGACAUUAGAGAAGUCGCAGCCAUAGACAACAGAGGAUUGAGCAUCA
B4: 52478818_52478938_2217_CDS_ENSMUSG00000028312_ENSMUST00000117280|mouse|control|control (ssRNA)
RNA: GGGAGUUCUACAGUCCGACGAUCUUCAGCAACAUUUUUAAGACCUGCUAACUCCUCUUCUAGAGCGCGCAGUUCAUUCUCCUUGGUCCUCAGCUCAUCUUGAACAUCUUUGACUUCUUGAAACUUGGUUAAAAUCGAAGCUGCCAACAGAGGAUUGAGCAUCA
B5: chr1:163117276:163117277:-_ENSG00000143248_ENST00000313961|hu_hu|FALSE|FALSE (ssRNA)
RNA: GGGAGUUCUACAGUCCGACGAUCGUCAAAGCUGCUCAGGGAAGGUUCCACCAGGUUCUUCAUUGUGAUGUCCUUAGUGAAGUGGUCAAUAUUCACCUCUUUAGGAGCCUCCGUUUGAAUGAAUUCUUCAUAAAUUUGCUUUGCCAACAGAGGAUUGAGCAUCA
B6: chr11:18536319:18536320:-_ENSG00000074319_ENST00000251968|perfect_dup|FALSE|FALSE (ssRNA)
RNA: GGGAGUUCUACAGUCCGACGAUCAAGAUAUAUCUUCCCAUUUGCAUCAACAUGCUUUCCUGUUUUAAUAGUCAUUGAACUAGUAGGCUUAACAAAACAGAUAGGGGGAUUAUAUGGGUAUGUGUCCAGUAGCCAUAGGCAUAUCAACAGAGGAUUGAGCAUCA

target: T1, UNK ZnF1-3; assay: nsRBNS (natural sequence RNA bind-n-seq); RBNS binding buffer (assumed for nsRBNS): 25 mM Tris pH 7.5, 150 mM KCl, 3 mM MgCl2, 0.01% Triton X-100, 500 ug/ml BSA, 20 U/ml SUPERase-In, 4 C; UNK is unkempt and MSI1 is Musashi-1; names of the RNAs are library labels; protein concentration not given here; high values mean tight binding

Row | Binder | binding signal [enrichment R]
1 | B1 | 0.705
2 | B2 | 0.874
3 | B3 | 1.49
4 | B4 | 0.698
5 | B5 | 0.967
6 | B6 | 0.683
